Experimental findings from PubChem BioAssay (NCI) are described below.

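Values below derive from 48-hour exposures of cells grown in 96-well plates, with endpoints linearly interpolated between the two concentrations bracketing the appropriate inhibition level. The concentration for 50% growth inhibition is given as GI50. TGI marks complete inhibition of growth.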

This assay has as its system NCI-H322M lung. The assay can be described thus: NCI tumour cell line growth inhibition, 48 h.
Regarding `CN(C)c1ccnc(CNCCSC2(c3ccccc3)c3ccccc3C=Cc3ccccc32)c1`, the GI50 was 2.79 µM and the TGI came out at 16.9 µM.
With `C=C1CC[C@@H]2[C@]3(C)COC(c4cn[nH]c4-c4cccc(Cl)c4)O[C@@H]3CC[C@@]2(C)[C@@H]1C/C=C1/C(=O)OCC1O` (stereo partly specified), the GI50 is 10.4 µM and the TGI turned out to be 22.1 µM.
As to `Cc1ccc(C2CC(c3ccc(S(=O)(=O)NCCNc4nc(Nc5ccc(F)cc5)nc(N(C)C)n4)cc3)=Nc3c(N)nc(N)nc3N2)cc1` (stereo unspecified), the GI50 was over 100 µM and the TGI was over 100 µM.
